Over roughly 81,000 sequences, “one-hybrid fitness for binding NBS DNA” has its median near -0.1; the highest 2% begin near 0.36. This is one part of the list.
B1: Caulobacter ParB omega fusion; a variant is named by its letters at X, in order, B8GW30 (parent)
chain: MESVVVGEPGMSEGRRGLGRGLSALLGEVDAAPAQAPGEQLGGSREAPIEILQRNPDQPRRTFREEDLEDLSNSIREKGVLQPILVRPSPDTAGEYQIVAGERAWRAAQRAGLKTVPIMVRELDDLAVLEIGIIENVQRADLNVLEEALSYKVLMEKFERTQENIAQTIGKSXSHVANXMRLLXLPDEVQSYLVSGELTAXHARAIAAAADPVALAKQIIEGGLSVRETEALARKAPNLSAGKSKGGRPPRVKDTDTQALESDLSSVLGLDVSIDHRGSTGTLTITYATLEQLDDLCNRLTRGI

Variants of: B1
Experiment: one-hybrid fitness for binding NBS DNA (the Noc-binding site; scaled: cognate 1, non-cognate 0); higher = stronger binding
Settings: with NBS DNA site
How it was run: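 Fitness is the rescaled log change in variant-to-wild-type read ratio, measured by Illumina sequencing of plasmids before and after bacterial one-hybrid selection. The scale puts cognate at 1 and non-cognate at 0. Selection of Caulobacter ParB libraries, four specificity codons randomised, took place in E. coli USO with a HIS3 reporter, site 19 bp from the promoter, over 48 hours at 37°C on M9-minus-histidine with 0.1 mM IPTG and 5 mM 3-AT.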

one-hybrid fitness for binding NBS DNA, 0.223:
QIKN

one-hybrid fitness for binding NBS DNA, 0.463:
QRMY

one-hybrid fitness for binding NBS DNA, 0.42:
QMGS

one-hybrid fitness for binding NBS DNA, 0.388:
RNNS

one-hybrid fitness for binding NBS DNA, 0.306:
RRDY

one-hybrid fitness for binding NBS DNA, 0.38:
RGKR

one-hybrid fitness for binding NBS DNA, 0.334:
QHRN

one-hybrid fitness for binding NBS DNA, 0.335:
RAKC

one-hybrid fitness for binding NBS DNA, ≤ 0.2:
AAKY
FMIV
ATWP
PKPG
MSGV
PWRL
GPQV
VCSR
KAQR
SSWP
GMNR
KDRS
RPLA
CVMT
CKRR
PTFR
GSAN
AMSD
SGLP
KCAN
PVFE
GYSG
GEPE
TVTP
SMMR
NGMR
KLCA
ACHM
YMHY
NTIE
MRYM
TMSV
PHVI
NEMG
YQTS
SFHM
FSYE
SHWV
SNNF
THVR
YVRG
RMDY
RMEF
LVNV
STSC
QSDH
TQGL
SYGA
RNTP
KNTG
HGLG
CTEG
RYPT
VSSF
TLVL
KHPD
RLAQ
RGDI
QLMD
TQRM
RIYL
RCCY
DECN
YMHF
VPTA
YISK
FSKD
RGCA
SFSN
TQSF
DLRE
EKWT
STWR
LDPY
YHCD
AYTT
DTTN
SQIT
TSCC
SAYR
TLRI
YQPG
QKMH
VWGW
RNQG
LSPP
MNDF
ACTF
QGLY
YGGL
NVAA
DLFA
KQSM
ENAS
TDKE
CTTM
TQET
QFAF
GHSF
IEYT
IMVC
YEHV
QYSI
FLEV
RDTV
FSPS
VHTG
NLQC
TRVF
RCLL
NHET
PRDL
ISQW
RNMS
LYKG
QFAK
PNEP
RSSQ
PPDC
ASVW
CADI
WGSS
GIDI
KFAR
HHKC
MWRG
SNTE
CSGF
IALC
VWDT
RCKD
STGE
SGKY
YKTS
HVMT
FTTG
SDTR
SSDD
RGFV
SMYI
YPDY
TCRD
DPIW
CLML
SWAY
MWHL
EMPR
ASVY
MEPS
AARA
SYHS
TNYS
AHYY
ERHR
ARFK
LLYH
DYLM
YQLE
LGKG
QMVV
IVGS
RIEC
GGHT
TSAE
QPLK
CATA
QEAF
TVHK
GQSR
VASY
DMDS
VSIL
GQTW
YCYS
YVTT
TQGW
VEPH
HNDC
YDAT
FPMN
AIDM
TLLT
GSWK
NLCT
LHWH
DRAS
QQVC
NNHN
TWFG
ATCI
ELES
LSCK
NAEH
IPHR
RCDN
RYDK
KLHR
ACNF
SSCY
QQAG
DYER
IGEW
INRN
GQYE
LAWH
ESAK
ESHG
RLGK
TNNI
CLQP
TYYT
QFCR
FKID
ALHK
VWSY
PDTA
CRIS
DIYT
SNPV
SMSF
CRYA
PELC
RIDP
KLDM
DSDM
RHIP
WKNG
PAER
IPHQ
TIKI
LKRL
FVTL
GPEP
TDAS
YDIS
RSVL
HYMT
QIQK
RLVH
WPTS
TMSE
KRFV
NVNV
APAQ
TQKL
RQRL
WRMS
GNPS
HWTT
WACY
CHFT
LHES
RPHC
SYAV
LYSV
PVNC
QYFG
VCLT
ISWR
FCHG
NFHR
NKRT
TGPC
PLAC
LSGK
SITP
EHMG
SPLL
NAEL
WDCV
TGRD
EHGG
IYRT
LIRE
SSLS
PSWV
KSQG
DDQR
QVIM
IDCL
DVPR
PMHQ
ANTA
TYHG
PLPI
MMVC
NAVW
PAVF

one-hybrid fitness for binding NBS DNA, 0.202:
CRHT

one-hybrid fitness for binding NBS DNA, 0.427:
RQAR

one-hybrid fitness for binding NBS DNA, 0.216:
CCRR

one-hybrid fitness for binding NBS DNA, 0.235:
RCRK

one-hybrid fitness for binding NBS DNA, 0.36:
QMWT

one-hybrid fitness for binding NBS DNA, 0.623:
QRMS

one-hybrid fitness for binding NBS DNA, 0.352:
QHIR

one-hybrid fitness for binding NBS DNA, 0.305:
RFHR

one-hybrid fitness for binding NBS DNA, 0.356:
QQCS

one-hybrid fitness for binding NBS DNA, 0.357:
QQQA

— a collection of fitness landscapes (doi:10.1016/j.celrep.2020.107928)
